Test results: PubChem BioAssay AID1460 (National Center for Advancing Translational Sciences (NCATS), 2008)
In all, about 270,000 compounds went through this assay and about 5,800 (2.1%) were called active. Inconclusive means that the source gave no clear call. Such entries were picked first, then a sample of the others. Calls come from the whole dose curve; as a rule, active = well fitted inhibition curve with a large enough effect; inconclusive = small, poorly fitted or top-dose-only effect; inactive = flat fitted curve, though single readings scatter. Potencies beside an inconclusive call are fits to weak or partial responses and may not hold up.

Molecular target: Microtubule-associated protein tau (Homo sapiens) (UniProt P10636)
Experiment: qHTS for Inhibitors of Tau Fibril Formation, Thioflavin T Binding; note: nearly all actives have a fitted effect of over 55% in size
Conditions: recombinant tau K18 P301L (four-repeat tau fragment), heparin-induced fibrillization, ThT fluorescence; series mostly up to 57.4 µM; activity, negative = inhibition: at the top concentration
Outline: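 Recombinant human tau K18 fragment […] carrying P301L, 15 uM unlabeled plus 0.24 uM Alexa 594-labeled, was fibrillized with 20 uM heparin in 100 mM sodium acetate pH 7 for 6 hr at 37 C; 30 uM ThT fluorescence read after 1 hr.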
% is set by controls: 0 for no effect and ±100 for the full control effect; potency is the fitted concentration of half-maximal effect; tags give direction and shape of the fitted curve.

Chain of UniProt P10636 (P10636 whole entry, looked up): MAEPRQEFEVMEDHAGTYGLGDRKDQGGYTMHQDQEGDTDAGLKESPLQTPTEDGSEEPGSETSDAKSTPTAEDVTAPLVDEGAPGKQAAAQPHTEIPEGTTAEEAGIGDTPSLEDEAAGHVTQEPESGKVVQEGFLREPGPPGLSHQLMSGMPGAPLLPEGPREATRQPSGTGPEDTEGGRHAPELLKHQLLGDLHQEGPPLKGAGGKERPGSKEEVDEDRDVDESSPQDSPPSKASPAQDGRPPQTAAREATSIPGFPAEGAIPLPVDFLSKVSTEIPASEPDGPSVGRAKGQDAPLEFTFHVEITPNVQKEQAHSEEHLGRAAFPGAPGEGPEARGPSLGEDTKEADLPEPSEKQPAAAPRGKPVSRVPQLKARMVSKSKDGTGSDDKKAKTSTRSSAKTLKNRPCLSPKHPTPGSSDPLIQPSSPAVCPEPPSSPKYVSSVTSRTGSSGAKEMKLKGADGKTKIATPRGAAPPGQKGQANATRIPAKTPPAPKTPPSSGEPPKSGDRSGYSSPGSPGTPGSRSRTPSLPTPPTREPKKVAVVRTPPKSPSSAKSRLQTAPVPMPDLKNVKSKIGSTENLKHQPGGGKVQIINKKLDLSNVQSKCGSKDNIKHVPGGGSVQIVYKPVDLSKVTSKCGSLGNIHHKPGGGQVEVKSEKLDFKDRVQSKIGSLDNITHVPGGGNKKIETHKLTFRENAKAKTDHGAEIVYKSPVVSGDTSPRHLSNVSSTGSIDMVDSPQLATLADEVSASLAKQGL

Row | Structure (SMILES) | activity, negative = inhibition | Potency
1 | O=C1NC2(O)C(=O)c3ccccc3C2(O)N1 (stereo unspecified) | inactive: 0.542% | 
2 | CC[C@H](C)N(C)C(=O)c1cc2ccccc2c(-c2ccccc2Cl)n1 | inactive: -14.8% | 
3 | Cc1cc(/C=C2\C(=N)N3N=C(C(C)C)SC3=NC2=O)c(C)n1Cc1ccccc1 |  | inconclusive: 6.31 µM [inhibitor, full curve]
4 | Cc1cc(C2C(C#N)=C(N)SC(N)=C2C#N)c(C)s1 |  | inconclusive: 35.5 µM [inhibitor, partial curve, poor fit]
5 | C=CCOC(=O)C1=C(C)N=C2SCCC(=O)N2C1c1ccc(OC(=O)c2ccco2)cc1 (stereo unspecified) | inactive: -14.5% | 
6 | C/C(=N\NC(N)=S)c1ccc2c(c1)OCCO2 |  | inconclusive: 20 µM [inhibitor, partial curve]
7 | COC(=O)Nc1cc(C(F)(F)F)ccc1N1CCN(c2ccccc2)CC1 |  | inconclusive: 15.8 µM [inhibitor, partial curve]
8 | COc1cc(NC(=O)CN2CCCN(Cc3cccc(F)c3)S2(=O)=O)cc(OC)c1 | inactive: -11.5% | 
9 | CN(C)/C=C/C(=O)/C=C/c1cn(-c2ncc(C(F)(F)F)cc2Cl)c2ccccc12 |  | inconclusive: 22.4 µM [inhibitor, partial curve]
10 | CC(C)Oc1ccc(C(=O)N(Cc2ccc(N(C)C)cc2)Cc2ccco2)cc1 |  | inconclusive: 17.8 µM [inhibitor, partial curve, poor fit]
11 | Cc1c(C(=O)NCCSCc2ccccc2Cl)cccc1[N+](=O)[O-] | inactive: -20.8% | 
12 | O=C(Nc1nc2ccc(F)cc2s1)c1ccccn1 |  | inconclusive: 3.16 µM [inhibitor, full curve]
13 | O=c1c2ccccc2c(C=Nc2ccccc2O)c(O)n1-c1nccs1 | inactive: -13.9% | 
14 | CCN(CC)S(=O)(=O)c1ccc2c(c1)N(CC(=O)Nc1c(C)cccc1C)C(=O)C1CCCN21 (stereo unspecified) | inactive: -6.84% | 
15 | CC(=O)c1cc2c(cc1NC(=O)CSc1nc3ccccc3[nH]1)OCO2 |  | inconclusive: 17.8 µM [inhibitor, partial curve]
16 | Cc1c(-c2nsc(NC(=O)c3cccs3)n2)nnn1-c1ccc(F)cc1 | inactive: -16.8% | 
17 | COc1ccccc1N1CCN(C(=O)c2cccc(Oc3ccccc3)c2)CC1 |  | inconclusive: 25.1 µM [inhibitor, single point]
18 | O=C(CC1C(=O)CCCC1=O)c1ccccc1 |  | inconclusive: 25.1 µM [inhibitor, partial curve]
19 | O=C(NCCc1ccccc1)c1ccc2c(c1)nc1n2CCOC1 |  | inconclusive: 7.94 µM [inhibitor, full curve, poor fit]
20 | O=S(=O)(c1ccccc1)c1nc(-c2ccc(F)cc2)oc1NCc1ccccc1 | inactive: -2.06% | 
21 | O=C(COc1ccccc1F)Nc1ccc2nc(SCC(=O)N3CCOCC3)sc2c1 | inactive: -13.6% | 
22 | CCCCN(CC)c1nc(N)c2c(N)nc(OCC)cc2c1C#N |  | inconclusive: 39.8 µM [inhibitor, single point]
23 | Cn1cc(/C=C2\SC(=S)N(NC(=O)c3cccc(Cl)c3)C2=O)c2ccccc21 |  | inconclusive: 1.12 µM [inhibitor, full curve]
24 | CN(CC(=O)OCC(=O)NC(=O)c1cccn1C)S(=O)(=O)c1ccc(Cl)cc1 |  | inconclusive: 44.7 µM [inhibitor, partial curve]

Row | Structure (SMILES) | activity, negative = inhibition | Potency
25 | CCOC(=O)c1cnc(SCCc2ccccc2)nc1N |  | inconclusive: 15.8 µM [inhibitor, partial curve]
26 | CCCOC(=O)CCCCCCCCC(O)CN1CCCCC1 (stereo unspecified) | inactive: 7.69% | 
27 | COc1ccc2[nH]c(=O)c(CNc3ccccc3C)cc2c1 |  | inconclusive: 10 µM [inhibitor, partial curve]
28 | COc1ccccc1-n1cnnc1SCC(=O)N1CCN(S(=O)(=O)c2ccccc2)CC1 |  | inconclusive: 28.2 µM [inhibitor, partial curve, poor fit]
29 | COc1ccc2c(c1)C(=O)[C@H](OC(=O)NCCOc1ccccc1)[C@@H](c1ccc(OC)c(Br)c1)O2 | inactive: -9.69% | 
30 | CCCCCCCC[n+]1cccc(C(=O)N(CC)CC)c1 | inactive: 1.6% | 
31 | COc1ccc(-c2nc(CSCC(=O)N3CCN(c4ccccc4F)CC3)c(C)o2)cc1 |  | inconclusive: 20 µM [inhibitor, partial curve]
32 | CC(=O)N1CCN(c2ccc(Nc3nc(C)nc4c3oc3ccccc34)cc2)CC1 |  | active: 8.91 µM
33 | COc1ccc(S(=O)(=O)NCCSC(C)(C)C)c(Cl)c1Cl | inactive: 8.61% | 
34 | Cc1cccc(C)c1Nc1c(-c2ccccn2)nc2ccc(Cl)cn12 |  | inconclusive: 15.8 µM [inhibitor, partial curve]
35 | Nc1nonc1-c1noc(COc2ccccc2Cl)n1 |  | inconclusive: 28.2 µM [inhibitor, partial curve]
36 | Cc1cccc(OC(=O)c2snnc2C)c1 |  | inconclusive: 11.2 µM [inhibitor, partial curve]
37 | COC(=O)C1=C(C(=O)OC)C(c2cc(Cl)ccc2O)c2sc(=O)[nH]c2S1 (stereo unspecified) |  | active: 25.1 µM
38 | O=C(CCS(=O)(=O)c1ccc(Br)s1)Nc1cc(C(F)(F)F)cc(C(F)(F)F)c1 | inactive: -11.2% | 
39 | Cn1cccc1C1NC(=O)c2c(sc3c2CCC(C(C)(C)C)C3)N1 (stereo unspecified) |  | inconclusive: 31.6 µM [inhibitor, single point]
40 | COc1ccc(-c2cc(C(=O)NC(Cc3c[nH]c4ccccc34)C(=O)O)c(C)o2)cc1OC (stereo unspecified) |  | inconclusive: 17.8 µM [inhibitor, partial curve, poor fit]
41 | Clc1ccc(CSc2nnc(CNc3cccc(Cl)c3)o2)cc1 |  | inconclusive: 0.0251 µM [inhibitor, full curve, poor fit]
42 | COc1cccc(/C=N/n2c(-c3cc(C)[nH]n3)n[nH]c2=S)c1O |  | inconclusive: 25.1 µM [inhibitor, partial curve, poor fit]
43 | Cc1cc(C(C)(C)C)cc(S(=O)(=O)Nc2ccc(O)c(C(=O)O)c2)c1C | inactive: -9.94% | 
44 | COc1ccc(-c2nsc3c(N4CCCCC4C)ncnc23)cc1 (stereo unspecified) |  | inconclusive: 14.1 µM [inhibitor, partial curve]
45 | C=Cc1ccc(Cn2c(C(=O)O)c(CNCCc3ccco3)c3ccc(C)cc32)cc1 |  | inconclusive: 39.8 µM [inhibitor, single point]
46 | O=C(CSc1ncccn1)Nc1ccc(N2CCOCC2)cc1 |  | inconclusive: 35.5 µM [inhibitor, partial curve]
47 | CCCCOC(=O)CSc1ncnc2sc3c(c12)CCC(C)C3 (stereo unspecified) |  | inconclusive: 17.8 µM [inhibitor, partial curve]
48 | Cc1ccccc1C(=O)Nc1ccc(N2CCCCCC2)cc1 |  | inconclusive: 17.8 µM [inhibitor, partial curve]

Row | Structure (SMILES) | activity, negative = inhibition | Potency
49 | CC(=O)N1c2ccccc2Oc2cc3ccccc3cc21 |  | inconclusive: 35.5 µM [inhibitor, single point]
50 | C=CCSc1nnc(NC(=O)CSc2nc(CCC)cc(=O)[nH]2)s1 | inactive: -0.425% | 
51 | COc1ccc(OC)c(C=Nc2ccccc2-c2nc3ccccc3[nH]2)c1 |  | inconclusive: 20 µM [inhibitor, partial curve]
52 | CCOc1ccccc1CNC(=O)c1ccc2nc(N3CCC(C)CC3)sc2c1 |  | inconclusive: 28.2 µM [inhibitor, single point]
53 | Cc1ccccc1Nc1c(-c2ccc(N3CCOCC3)cc2)nc2cccc(C)n12 |  | inconclusive: 10 µM [inhibitor, partial curve]
54 | Cc1ccc(NC(=O)c2cc(S(=O)(=O)c3ccccc3)ccc2Cl)cc1 | inactive: -4.93% | 
55 | CCOc1ccc(NC(=O)c2sc(-n3nc(C)c(CCC(C)C)c3C)nc2C)cc1 |  | inconclusive: 3.98 µM [inhibitor, partial curve]
56 | C/C(CC(=O)Nc1cccc(Cl)c1C)=N\NC(=O)Cc1csc(N)n1 |  | inconclusive: 35.5 µM [inhibitor, single point]
57 | CCC(C(=O)NNC(=O)c1cnccn1)c1ccccc1 (stereo unspecified) | inactive: -3.78% | 
58 | Cc1ccc(OCCSc2nnc(-c3cccs3)n2C)cc1 |  | inconclusive: 8.91 µM [inhibitor, partial curve]
59 | COc1ccc(-c2csc(NC(=O)C3CC(=O)N(c4ccc5c(c4)OCCO5)C3)n2)cc1 (stereo unspecified) |  | inconclusive: 2.82 µM [inhibitor, partial curve]
60 | CCOc1ccccc1NC(=O)CSc1ncc2c(n1)-c1ccccc1N(CC)S2(=O)=O | inactive: 11.3% | 
61 | Cc1cccc(N2CCN(C3=NC(=O)C(Cc4ccccc4)S3)CC2)c1 (stereo unspecified) |  | inconclusive: 7.94 µM [inhibitor, partial curve]
62 | CCN(CC)CCNC(=O)c1[nH]c2ccc(OCc3ccccc3)cc2c1C | inactive: -12.5% | 
63 | COc1cccc(Cn2nnc3c(=O)[nH]c(C4CCCN(C(=O)c5ccccc5Cl)C4)nc32)c1 (stereo unspecified) |  | inactive
64 | Cc1cc(N2CCN(c3cccc(C)c3C)CC2)nc(-c2ccccc2)n1 |  | inconclusive: 14.1 µM [inhibitor, partial curve]
65 | O=C1C(=C2CCCCC2)SC(=S)N1Cc1ccco1 |  | active: 25.1 µM
66 | Cc1ccc(NCC(=O)N/N=C/c2cccn2C)cc1 |  | inconclusive: 25.1 µM [inhibitor, single point]
67 | Cn1nnnc1SCC1=C(C(=O)O)N2C(=O)C(NC(=O)C3CC3c3ccccc3)C2SC1 (stereo unspecified) |  | inconclusive: 31.6 µM [inhibitor, partial curve]
68 | CC1CCCN(c2ccc([N+](=O)[O-])s2)C1 (stereo unspecified) |  | inconclusive: 22.4 µM [inhibitor, partial curve]
69 | Cc1cccc(NC(=O)c2ccc(CN3CC(=O)N4CCCCC4C3=O)cc2)c1C (stereo unspecified) | inactive: -6.54% | 
70 | Cn1cccc1/C=N/NC(=O)c1ccn[nH]1 |  | inconclusive: 35.5 µM [inhibitor, single point]
71 | O=C(Nc1ccc(F)cc1)NC1CCN(Cc2nnnn2Cc2ccco2)CC1 | inactive: -21.2% | 
